The record followed here is article PMC6152123, “Sites for Dynamic Protein-Carbohydrate Interactions of O- and C-Linked Mannosides on the E. coli FimH Adhesin” (Molecules : A Journal of Synthetic Chemistry and Natural …, 2017).

The assay concerns type-1 piliated uropathogenic E. coli strain UTI89. Description: Haemagglutination inhibition assay (HAI), guinea pig red blood cells. To be noted: for IC50: Escherichia coli, Erythrocyte, read-out: IC50 HAI (µM); for HAI: minimal concentration inhibiting haemagglutination, 2-fold dilution series, 10% DMSO, 1 hour at 4 °C.

Structures are written as SMILES.

Usually IC50 stands for the concentration at which inhibition is half-maximal. Regarding `OC[C@H]1O[C@H](C/C=C/c2ccc(-c3ccccc3)cc2)[C@@H](O)[C@@H](O)[C@@H]1O` [Compound 116], the IC50 worked out at 100 µM.

As to `COCC#Cc1ccc(O[C@H]2O[C@H](CO)[C@@H](O)[C@H](O)[C@@H]2O)cc1` [Compound 62], the IC50 came to 25 µM and the “HAI” value worked out at 25 µM. As for `OC[C@H]1O[C@H](OC/C=C/c2cccc3ccccc23)[C@@H](O)[C@@H](O)[C@@H]1O` [Compound 25], the IC50 was determined as 50 µM and the “HAI” value is 50 µM.

For the molecule `OC[C@H]1O[C@H](CCCc2ccc(-c3ccccc3)cc2)[C@@H](O)[C@@H](O)[C@@H]1O` [Compound 120], the IC50 was 12.5 µM. For the molecule `OC[C@H]1O[C@H](OCCCc2cccc3ccccc23)[C@@H](O)[C@@H](O)[C@@H]1O` [Compound 29], the IC50 came to 25 µM and the “HAI” value was determined as 25 µM. Under “HAI data”, the “fold better inhibitory potency than alkene 25” value is given as 2 fold. With `CCCSCCCO[C@H]1O[C@H](CO)[C@@H](O)[C@H](O)[C@@H]1O` [Compound 37], the IC50 amounted to 25 µM and the “HAI” value came out at 25 µM.

In the case of `OCC#Cc1ccc(O[C@H]2O[C@H](CO)[C@@H](O)[C@H](O)[C@@H]2O)cc1` [Compound 61], the IC50 was 12.5 µM and the “HAI” value is reported as 12.5 µM.

In the case of `CCCCCCCO[C@H]1O[C@H](CO)[C@@H](O)[C@H](O)[C@@H]1O` [Compound 5, heptyl α-D-mannopyranoside, reference compound], the IC50 is 6.25 µM and the “HAI” value amounted to 6.25 µM. Moreover, the “fold higher inhibition potency than 4-thio analog 37” value (ITC and HAI measurements) was ~ 4 fold.

With `CCCCO[C@H]1O[C@H](CO)[C@@H](O)[C@H](O)[C@@H]1O` [Compound 4, reference compound], the IC50 amounted to 100 µM and the “HAI” value is recorded as 100 µM. Take `OC[C@H]1O[C@H](OCCCc2ccc(-c3ccccc3)cc2)[C@@H](O)[C@@H](O)[C@@H]1O` [Compound 27]: the IC50 is 25 µM and the “HAI” value came out at 25 µM. Turning to `OC[C@H]1O[C@H](C/C=C/c2cccc3ccccc23)[C@@H](O)[C@@H](O)[C@@H]1O` [Compound 118], the IC50 was found to be 25 µM. As for `OC[C@H]1O[C@H](CCCc2cccc3ccccc23)[C@@H](O)[C@@H](O)[C@@H]1O` [Compound 122], the IC50 was 12.5 µM. As to `OC[C@H]1O[C@H](OCC#Cc2cccnc2)[C@@H](O)[C@@H](O)[C@@H]1O` [Compound 55], the half-maximal inhibitory concentration (IC50) worked out at 50 µM and the “HAI” value stood at 50 µM. As for `COc1ccc(C#CCO[C@H]2O[C@H](CO)[C@@H](O)[C@H](O)[C@@H]2O)cc1` [Compound 56], the IC50 is 50 µM and the “HAI” value was found to be 50 µM. Take `OC[C@H]1O[C@H](OCC#Cc2cccc3ccccc23)[C@@H](O)[C@@H](O)[C@@H]1O` [Compound 53]: the IC50 stood at 50 µM and the “HAI” value was determined as 50 µM.

With `OC[C@H]1O[C@H](OCC#Cc2ccc(-c3ccccc3)cc2)[C@@H](O)[C@@H](O)[C@@H]1O` [Compound 51], the IC50 turned out to be 100 µM and the “HAI” value came out at 100 µM. With `OC[C@H]1O[C@H](OC/C=C/c2ccc(-c3ccccc3)cc2)[C@@H](O)[C@@H](O)[C@@H]1O` [Compound 23], the IC50 stood at 25 µM and the “HAI” value is 25 µM.
